# Measured values taken from the supplement of paper PMC8728848.
# This is one part of the list.
# B1: Banana lectin (Musa acuminata) (protein)
# chain: MNGAIKVGAWGGNGGSAFDMGPAYRIISVKIFSGDVVDGVDVTFTYYGKTETRHYGGSGGTPHEIVLQEGEYLVGMAGEVANYTGAVVLGKLGFSTNKKAYGPFGNTGGTPFSLPIAAGKISGFFGRGGKFLDAIGVYLEPLEHHHHHH
# Experiments:
# Test in all cases: glycan array binding signal (z-score within array); higher = stronger binding
# Conditions in all cases: glycan notation: IUPAC condensed, linker removed; mutation: H84T
# Neu5Ac(a2-8)Neu5Ac = target: Neu5Ac(a2-8)Neu5Ac
# How it was run: (§1)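 Glycan array data came from 3228 arrays in the Consortium for Functional Glycomics database, and only arrays with an available protein sequence were kept. Glycan names were put into IUPAC-condensed notation, and columns mapping to the same glycan were averaged. The binding signal is a within-array Z-score, averaged across arrays of one protein sequence run at different concentrations or buffers and across linkers. A negative Z-score can be read as non-binding.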
# [1] = target: Neu5Ac(a2-8)Neu5Ac(a2-3)Gal(b1-3)GalNAc(b1-4)[Neu5Ac(a2-3)]Gal(b1-4)Glc
# How it was run: as §1
# [2] = target: Neu5Ac(a2-8)Neu5Ac(a2-3)Gal(b1-3)GalNAc(b1-4)[Neu5Ac(a2-8)Neu5Ac(a2-3)]Gal(b1-4)Glc
# How it was run: as §1
# [3] = target: Neu5Ac(a2-8)Neu5Ac(a2-3)Gal(b1-4)Glc
# How it was run: as §1
# [4] = target: Neu5Ac(a2-8)Neu5Ac(a2-3)Gal(b1-4)GlcNAc
# How it was run: as §1
# [5] = target: Neu5Ac(a2-8)Neu5Ac(a2-3)[Gal(b1-3)GalNAc(b1-4)]Gal(b1-4)Glc
# How it was run: as §1
# [6] = target: Neu5Ac(a2-8)Neu5Ac(a2-3)[GalNAc(b1-4)]Gal(b1-4)Glc
# How it was run: as §1
# [7] = target: Neu5Ac(a2-8)Neu5Ac(a2-8)Neu5Ac
# How it was run: as §1
# [8] = target: Neu5Ac(a2-8)Neu5Ac(a2-8)Neu5Ac(a2-3)Gal(b1-4)Glc
# How it was run: as §1
# [9] = target: Neu5Ac(a2-8)Neu5Ac(a2-8)Neu5Ac(a2-3)[Gal(b1-3)GalNAc(b1-4)]Gal(b1-4)Glc
# How it was run: as §1
# [10] = target: Neu5Ac(a2-8)Neu5Ac(a2-8)Neu5Ac(a2-3)[GalNAc(b1-4)]Gal(b1-4)Glc
# How it was run: as §1
# [11] = target: Neu5Ac(a2-8)Neu5Ac(a2-8)Neu5Ac(a2-8)Neu5Ac(a2-3)[GalNAc(b1-4)]Gal(b1-4)Glc
# How it was run: as §1
# [12] = target: Neu5Ac(a2-8)Neu5Gc(a2-3)Gal(b1-4)GlcNAc
# How it was run: as §1
# [13] = target: Neu5Ac(b2-6)Gal(b1-4)GlcNAc
# How it was run: as §1
# Neu5Ac(b2-6)GalNAc = target: Neu5Ac(b2-6)GalNAc
# How it was run: as §1
# [14] = target: Neu5Ac9Ac(a2-3)Gal(b1-3)GlcNAc
# How it was run: as §1
# [15] = target: Neu5Ac9Ac(a2-3)Gal(b1-4)GlcNAc
# How it was run: as §1
# [16] = target: Neu5Ac9Ac(a2-6)Gal(b1-4)GlcNAc
# How it was run: as §1
# [17] = target: Neu5Gc(a2-3)Gal(b1-3)GlcNAc
# How it was run: as §1
# [18] = target: Neu5Gc(a2-3)Gal(b1-3)[Fuc(a1-4)]GlcNAc
# How it was run: as §1
# Neu5Gc(a2-3)Gal(b1-4)Glc = target: Neu5Gc(a2-3)Gal(b1-4)Glc
# How it was run: as §1
# [19] = target: Neu5Gc(a2-3)Gal(b1-4)GlcNAc
# How it was run: as §1
# [20] = target: Neu5Gc(a2-3)Gal(b1-4)GlcNAc(b1-3)Gal(b1-4)GlcNAc(b1-2)Man(a1-3)[Neu5Gc(a2-3)Gal(b1-4)GlcNAc(b1-3)Gal(b1-4)GlcNAc(b1-2)Man(a1-6)]Man(b1-4)GlcNAc(b1-4)GlcNAc
# How it was run: as §1
# [21] = target: Neu5Gc(a2-3)Gal(b1-4)[Fuc(a1-3)]GlcNAc
# How it was run: as §1
# [22] = target: Neu5Gc(a2-6)Gal(b1-4)GlcNAc
# How it was run: as §1
# Neu5Gc(a2-6)GalNAc = target: Neu5Gc(a2-6)GalNAc
# How it was run: as §1
# [23] = target: Neu5Gc(a2-8)Neu5Ac(a2-3)Gal(b1-4)GlcNAc
# How it was run: as §1
# [24] = target: Neu5Gc(a2-8)Neu5Gc(a2-3)Gal(b1-4)GlcNAc
# How it was run: as §1
# [25] = target: Neu5Gc(a2-8)Neu5Gc(a2-3)Gal(b1-4)GlcNAc(b1-3)Gal(b1-4)GlcNAc
# How it was run: as §1
# [26] = target: Neu5Gc(a2-8)Neu5Gc(a2-6)Gal(b1-4)GlcNAc
# How it was run: as §1
# [27] = target: Neu5Gc(b2-6)Gal(b1-4)GlcNAc
# How it was run: as §1
binder,measurement,setting,value
B1,glycan array binding signal (z-score),Neu5Ac(a2-8)Neu5Ac,-0.177
same,glycan array binding signal (z-score),[1],-0.187
same,glycan array binding signal (z-score),[2],-0.177
same,glycan array binding signal (z-score),[3],-0.177
same,glycan array binding signal (z-score),[4],-0.182
same,glycan array binding signal (z-score),[5],-0.178
same,glycan array binding signal (z-score),[6],-0.134
same,glycan array binding signal (z-score),[7],-0.158
same,glycan array binding signal (z-score),[8],-0.179
same,glycan array binding signal (z-score),[9],-0.159
same,glycan array binding signal (z-score),[10],-0.157
same,glycan array binding signal (z-score),[11],-0.195
same,glycan array binding signal (z-score),[12],-0.222
same,glycan array binding signal (z-score),[13],-0.184
same,glycan array binding signal (z-score),Neu5Ac(b2-6)GalNAc,-0.154
same,glycan array binding signal (z-score),[14],-0.175
same,glycan array binding signal (z-score),[15],-0.181
same,glycan array binding signal (z-score),[16],-0.176
same,glycan array binding signal (z-score),[17],-0.118
same,glycan array binding signal (z-score),[18],-0.194
same,glycan array binding signal (z-score),Neu5Gc(a2-3)Gal(b1-4)Glc,-0.209
same,glycan array binding signal (z-score),[19],-0.189
same,glycan array binding signal (z-score),[20],-0.186
same,glycan array binding signal (z-score),[21],-0.18
same,glycan array binding signal (z-score),[22],-0.167
same,glycan array binding signal (z-score),Neu5Gc(a2-6)GalNAc,-0.157
same,glycan array binding signal (z-score),[23],-0.19
same,glycan array binding signal (z-score),[24],-0.162
same,glycan array binding signal (z-score),[25],-0.195
same,glycan array binding signal (z-score),[26],-0.137
same,glycan array binding signal (z-score),[27],-0.168
